Experimental data from the supplement of paper PMC11417369.
This is one part of the list.

The sequences below were run on PfHDP1 homeodomain (GST-tagged) (assay: gcPBM binding intensity (ln(normalized median fluorescence intensity)); higher = stronger DNA binding).
Method in brief: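 The highest Masliner-normalised natural-log median intensity across replicate spots of either probe orientation is reported as binding intensity. GST-tagged P. falciparum DNA-binding domains expressed in E. coli were applied for 1 h to an Agilent 4 × 180k array of primer-extended double-stranded 36-bp intergenic genomic probes plus negative controls, and bound protein was detected with Alexa488 anti-GST antibody and scanned at 488 nm.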
For “ACAGGATTGGTTCAAACACACATATTATAGGACTAT [CACACA_site6455]”, the “gcPBM binding intensity (ln)” value was 6.53.
For “AAAAAACATTTGATCTGTACGCATAGACAATTATAT [XGTACX_site960]”, the “gcPBM binding intensity (ln)” value was 6.3.
In the case of “AATAATATGTTATCTCTTACACATATAAAAAATAAA [XGTACX_negctrl_site370]”, the “gcPBM binding intensity (ln)” value is reported as 6.12.
In the case of “TAAAAGAAAGCACATACACACACAAAAAAAAAAAAG [CACACA_site8159]”, the “gcPBM binding intensity (ln)” value is reported as 6.58.
“TCTGTAAATATGTATACACACATATATGATCAATAT [CACACA_site3234]” was tested, and the “gcPBM binding intensity (ln)” value was 6.99.
“AGTAGAAAAGGAACATGTACGAATTAAAAAAATAAT [XGTACX_site2347]” was tested, and the “gcPBM binding intensity (ln)” value was 6.8.
In the case of “AATTAAATGATTTATACATGCATATAAATATAAATA [TGCATGCA_site579]”, the “gcPBM binding intensity (ln)” value is reported as 6.26.
In the case of “TACACCATGATACATACACACAGACATATACACATT [CACACA_site6601]”, the “gcPBM binding intensity (ln)” value is reported as 7.04.
In the case of “ACATATATATATATATATATATATATATTTATTTAT [CACACA_negctrl_site734]”, the “gcPBM binding intensity (ln)” value is reported as 7.3.
In the case of “AGAAAAAAAATGTATACACACAAATATAAAGAAGGA [CACACA_site3806]”, the “gcPBM binding intensity (ln)” value is reported as 7.09.
For “AAAATTAATAAATGAGAAAAAAGGATGAATAATGAG [CACACA_negctrl_site1614]”, the “gcPBM binding intensity (ln)” value was 7.17.
For “AAACGTGCGTATATGTGTACGCATATATATATATAT [XGTACX_site5252]”, the “gcPBM binding intensity (ln)” value was 9.26.
In the case of “TTTATTAATTAAACCATACACACATAATTTTTTTAT [CACACA_site842]”, the “gcPBM binding intensity (ln)” value is reported as 6.66.
With “TAAAAAATTATAAAATGTACATAAAAAAAAAAAAAA [XGTACX_site3376]” the “gcPBM binding intensity (ln)” value was 6.51.
In the case of “AAAGCACGCAAGAATACACACAAATATTATAAAAAA [CACACA_site6206]”, the “gcPBM binding intensity (ln)” value is reported as 6.55.
“ATCCCAGTAATATATAGTACATAACTATAAGAGAAT [XGTACX_site6909]” was tested, and the “gcPBM binding intensity (ln)” value was 6.93.
“AGGAAAACAAAAGATGCATGCTAATTTTCCTCGCGT [TGCATGCA_site627]” was tested, and the “gcPBM binding intensity (ln)” value was 6.31.
“CTGAAGAAACTACAACGTACAAAATATGTATATATT [XGTACX_site3779]” was tested, and the “gcPBM binding intensity (ln)” value was 6.35.
For “ATATTTTTTAGGGTCACACATACTTATTATATAAAT [CACACA_site4926]”, the “gcPBM binding intensity (ln)” value was 6.71.
For “AATATTTAACACCTTATACACACTTTCTTCCTTTTT [CACACA_site785]”, the “gcPBM binding intensity (ln)” value was 6.92.
With “TATGATGAGATAACAAAAGTTGTACTTTTTTTTTTT [CACACA_negctrl_site1172]” the “gcPBM binding intensity (ln)” value was 6.
For “CATATATACTCATACACACACACACCGACACAGACA [CACACA_site5026]”, the “gcPBM binding intensity (ln)” value was 7.27.
“ATGATATGGATAAATACACACAATATAATAATGTCT [CACACA_site1433]” was tested, and the “gcPBM binding intensity (ln)” value was 6.58.
For “CACAAACAAAGACACACACACACACGCACAAAAATG [CACACA_site7193]”, the “gcPBM binding intensity (ln)” value was 7.45.
